From PubChem BioAssay (NCI)
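Dose response: 5 concentrations. Exposure: 48 h. Format: 96-well plates. Endpoint: linear interpolation; highest concentration if not reached. Abbreviation: GI50, concentration required for 50% inhibition of growth. TGI marks complete inhibition of growth.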

Each compound was assayed on NCI-H322M lung (assay: NCI-60 cell line screen, 48 h).

Compound | GI50 [µM] | TGI [µM]
O=Nc1c(-c2cccc([N+](=O)[O-])c2)nc2ncccn12 | 25.1 | 88.1
COc1cc2c(cc1-c1c(C)noc1C)ncc1nc(C3CCCCC3)n(C3CCC(OC(F)F)CC3)c12 (configuration not stated) | 4.35 | > 100
CCN(CC)P1(=S)Oc2ccc3ccccc3c2-c2c(ccc3ccccc23)O1 | – | > 100
Cc1c2c(nn1-c1ccc(S/N=C3\SCC(=O)CN3c3ccccc3)cc1)-c1ccccc1CC2 | > 50 | > 50
CNCCNc1nc2ccccc2c2c(=O)c3cccc(OC)c3sc12 | 1.53 | 3.06
CC1(c2cccc(C3CCC4(C=CC3=O)OCCO4)c2)OCCO1 (configuration not stated) | – | 45.5
CCOC(=O)/C(O)=C(\C=N\C(=S)Nc1ccc(Cl)c(Cl)c1)C(=O)OCC | – | > 100
Cc1nc2c(=O)[nH]c(=O)nc-2n(CCO)c1C | – | > 100
COc1ccccc1Nc1nc(-c2cc3cccc(C(F)(F)F)c3oc2=O)cs1 | 0.955 | > 100
Brc1ccc(-c2ccc(-c3ccc(Br)s3)s2)s1 | – | > 100
CC(C)(C)[Si](C)(C)OCC1OC(n2ccc(=O)[nH]c2=O)C(O[Si](C)(C)C(C)(C)C)/C1=N/O (configuration not stated) | – | 18.4
O=[N+]([O-])c1ccc2[nH]cc(-c3c4ccccc4cc4[nH]c5ccc([N+](=O)[O-])cc5c34)c2c1 | 1.84 | 3.98
COc1ccc(C(=O)Nc2cccc(C3CC(=O)c4c(cc(OC)c(OC)c4OC)O3)c2)cc1 (configuration not stated) | 5.36 | > 100
CC1SC(c2cccs2)N(NC(=O)C(O)c2ccccc2)C1=O (configuration not stated) | > 100 | > 100
O=C(O)/C(Cl)=C(/Cl)C(=O)Nc1cccc(Cl)c1 | – | > 94.6
COc1ccc(N=NN2CCCC2)cc1 | – | > 100
COc1ccc2c(c1)CCC(CN1CCN(CCOC(c3ccc(F)cc3)c3ccc(F)cc3)CC1)=C2 | – | > 100
Cc1[nH]n(C(=O)c2ccccc2O)c(=O)c1/C=C1\C(=O)C=Cc2ccccc21 | – | > 73
O=S1(=O)CSc2ccc3ccccc3c2-c2c1ccc1ccccc21 | – | > 100
